Measured values reported in PMC9911399, “Two distinct binding modes provide the RNA-binding protein RbFox with extraordinary sequence specificity”.
Numbering of substitutions follows the chain as printed; changes in the protein carry UniProt numbers. The list shows a part of the results.

T1: RBFOX1 RRM (Homo sapiens, UniProt Q9NWB1 109-208)
T1 sequence: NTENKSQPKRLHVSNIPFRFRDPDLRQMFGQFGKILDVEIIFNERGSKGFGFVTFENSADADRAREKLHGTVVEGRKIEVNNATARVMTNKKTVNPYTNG

B1: UUCGUGC (DNA:RNA)
RNA: GGGAGACCGGAAUUCAGAUUGUCCUUCGUGCUUAAAUCCCGUCGUAGCCACCA
DNA 1: CAATCTGAATTCCGGTCTCCC
DNA 2: TGGTGGCTACGACGGGATT
B2: CACGAGU (DNA:RNA)
RNA: B1 RNA with U25C, U26A, U29A, C31U
DNA 1: CAATCTGAATTCCGGTCTCCC
DNA 2: TGGTGGCTACGACGGGATT
B3: UGCUAAA (DNA:RNA)
RNA: B1 RNA with U26G, G28U, U29A, G30A, C31A
DNA 1: CAATCTGAATTCCGGTCTCCC
DNA 2: TGGTGGCTACGACGGGATT
B4: AUUAUGC (DNA:RNA)
RNA: B1 RNA with U25A, C27U, G28A
DNA 1: CAATCTGAATTCCGGTCTCCC
DNA 2: TGGTGGCTACGACGGGATT
B5: CCUACCG (DNA:RNA)
RNA: GGGAGACCGGAAUUCAGAUUGUCCCCUACCGUUAAAUCCCGUCGUAGCCACCA
DNA 1: CAATCTGAATTCCGGTCTCCC
DNA 2: TGGTGGCTACGACGGGATT
B6: GGAGUAC (DNA:RNA)
RNA: B1 RNA with U25G, U26G, C27A, G30A
DNA 1: CAATCTGAATTCCGGTCTCCC
DNA 2: TGGTGGCTACGACGGGATT
B7: CUUGAAA (DNA:RNA)
RNA: B5 RNA with C26U, A28G, C29A, C30A, G31A
DNA 1: CAATCTGAATTCCGGTCTCCC
DNA 2: TGGTGGCTACGACGGGATT
B8: CCUCUUG (DNA:RNA)
RNA: B5 RNA with A28C, C29U, C30U
DNA 1: CAATCTGAATTCCGGTCTCCC
DNA 2: TGGTGGCTACGACGGGATT
B9: AAGUCUG (DNA:RNA)
RNA: B5 RNA with C25A, C26A, U27G, A28U, C30U
DNA 1: CAATCTGAATTCCGGTCTCCC
DNA 2: TGGTGGCTACGACGGGATT
B10: AAGUCAC (DNA:RNA)
RNA: B5 RNA with C25A, C26A, U27G, A28U, C30A, G31C
DNA 1: CAATCTGAATTCCGGTCTCCC
DNA 2: TGGTGGCTACGACGGGATT
B11: UGGUCCC (DNA:RNA)
RNA: B5 RNA with C25U, C26G, U27G, A28U, G31C
DNA 1: CAATCTGAATTCCGGTCTCCC
DNA 2: TGGTGGCTACGACGGGATT
B12: AAUACAU (DNA:RNA)
RNA: B5 RNA with C25A, C26A, C30A, G31U
DNA 1: CAATCTGAATTCCGGTCTCCC
DNA 2: TGGTGGCTACGACGGGATT
B13: UAUGAGC (DNA:RNA)
RNA: B1 RNA with U26A, C27U, U29A
DNA 1: CAATCTGAATTCCGGTCTCCC
DNA 2: TGGTGGCTACGACGGGATT
B14: AGAUCGC (DNA:RNA)
RNA: B1 RNA with U25A, U26G, C27A, G28U, U29C
DNA 1: CAATCTGAATTCCGGTCTCCC
DNA 2: TGGTGGCTACGACGGGATT
B15: AUUCCCC (DNA:RNA)
RNA: B5 RNA with C25A, C26U, A28C, G31C
DNA 1: CAATCTGAATTCCGGTCTCCC
DNA 2: TGGTGGCTACGACGGGATT
B16: UAAUGAA (DNA:RNA)
RNA: B1 RNA with U26A, C27A, G28U, U29G, G30A, C31A
DNA 1: CAATCTGAATTCCGGTCTCCC
DNA 2: TGGTGGCTACGACGGGATT
B17: GUAAGUC (DNA:RNA)
RNA: B1 RNA with U25G, C27A, G28A, U29G, G30U
DNA 1: CAATCTGAATTCCGGTCTCCC
DNA 2: TGGTGGCTACGACGGGATT
B18: AGGGAAA (DNA:RNA)
RNA: B1 RNA with U25A, U26G, C27G, U29A, G30A, C31A
DNA 1: CAATCTGAATTCCGGTCTCCC
DNA 2: TGGTGGCTACGACGGGATT
B19: UAGAGAG (DNA:RNA)
RNA: B5 RNA with C25U, C26A, U27G, C29G, C30A
DNA 1: CAATCTGAATTCCGGTCTCCC
DNA 2: TGGTGGCTACGACGGGATT
B20: GCGAGGG (DNA:RNA)
RNA: B5 RNA with C25G, U27G, C29G, C30G
DNA 1: CAATCTGAATTCCGGTCTCCC
DNA 2: TGGTGGCTACGACGGGATT
B21: CGCUGAG (DNA:RNA)
RNA: B5 RNA with C26G, U27C, A28U, C29G, C30A
DNA 1: CAATCTGAATTCCGGTCTCCC
DNA 2: TGGTGGCTACGACGGGATT
B22: CCCGUCG (DNA:RNA)
RNA: B5 RNA with U27C, A28G, C29U
DNA 1: CAATCTGAATTCCGGTCTCCC
DNA 2: TGGTGGCTACGACGGGATT
B23: GAUCAUG (DNA:RNA)
RNA: B5 RNA with C25G, C26A, A28C, C29A, C30U
DNA 1: CAATCTGAATTCCGGTCTCCC
DNA 2: TGGTGGCTACGACGGGATT
B24: AUACGCU (DNA:RNA)
RNA: B5 RNA with C25A, C26U, U27A, A28C, C29G, G31U
DNA 1: CAATCTGAATTCCGGTCTCCC
DNA 2: TGGTGGCTACGACGGGATT
B25: AGGCUCC (DNA:RNA)
RNA: B1 RNA with U25A, U26G, C27G, G28C, G30C
DNA 1: CAATCTGAATTCCGGTCTCCC
DNA 2: TGGTGGCTACGACGGGATT
B26: ACCCUUG (DNA:RNA)
RNA: B5 RNA with C25A, U27C, A28C, C29U, C30U
DNA 1: CAATCTGAATTCCGGTCTCCC
DNA 2: TGGTGGCTACGACGGGATT
B27: GCAGCAC (DNA:RNA)
RNA: B5 RNA with C25G, U27A, A28G, C30A, G31C
DNA 1: CAATCTGAATTCCGGTCTCCC
DNA 2: TGGTGGCTACGACGGGATT
B28: CAAUACU (DNA:RNA)
RNA: B5 RNA with C26A, U27A, A28U, C29A, G31U
DNA 1: CAATCTGAATTCCGGTCTCCC
DNA 2: TGGTGGCTACGACGGGATT
B29: UGGAACC (DNA:RNA)
RNA: B5 RNA with C25U, C26G, U27G, C29A, G31C
DNA 1: CAATCTGAATTCCGGTCTCCC
DNA 2: TGGTGGCTACGACGGGATT
B30: ACAACUU (DNA:RNA)
RNA: B5 RNA with C25A, U27A, C30U, G31U
DNA 1: CAATCTGAATTCCGGTCTCCC
DNA 2: TGGTGGCTACGACGGGATT
B31: CUCCGAA (DNA:RNA)
RNA: B1 RNA with U25C, G28C, U29G, G30A, C31A
DNA 1: CAATCTGAATTCCGGTCTCCC
DNA 2: TGGTGGCTACGACGGGATT

Molecular target: T1, RBFOX1 RRM
Assay: EMSA; HiTS-Eq, 1 nM pool, 10 min; buffer printed only for the single-RNA assays: 10 mM Tris pH 7.5, 150 mM NaCl, 3.4 mM EDTA, 0.001% NP-40, 30 C
Conditions: tags: His6 N-terminal (pET28a); label: 5' 32P
How it was run: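 Purified RbFox RRM, wild type or mutant, was incubated for 10 min in 50 µL with 1 nM of a 5′-radiolabelled RNA pool carrying 7 randomized nucleotides, whose flanks were annealed to DNA oligonucleotides, over a series of increasing protein concentrations. Unbound RNA was resolved on 8% native PAGE, cut out, reverse-transcribed, barcoded by PCR and sequenced on an Illumina HiSeq 2500. Relative association constants were derived from changes in read counts for each RNA species versus the control reaction and normalised to the cognate motif.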

Binder	binding signal
B1	0.0243 KA relative to UGCAUGU
B2	0.00553 KA relative to UGCAUGU
B3	0.0104 KA relative to UGCAUGU
B4	0.0074 KA relative to UGCAUGU
B5	0.00129 KA relative to UGCAUGU
B6	0.0247 KA relative to UGCAUGU
B7	0.00785 KA relative to UGCAUGU
B8	0.00933 KA relative to UGCAUGU
B9	0.0131 KA relative to UGCAUGU
B10	0.00546 KA relative to UGCAUGU
B11	0.0149 KA relative to UGCAUGU
B12	0.000474 KA relative to UGCAUGU
B13	0.0111 KA relative to UGCAUGU
B14	0.0142 KA relative to UGCAUGU
B15	0.000201 KA relative to UGCAUGU
B16	0.0113 KA relative to UGCAUGU

Binder	binding signal
B17	0.00957 KA relative to UGCAUGU
B18	0.0157 KA relative to UGCAUGU
B19	0.0107 KA relative to UGCAUGU
B20	0.0158 KA relative to UGCAUGU
B21	0.0264 KA relative to UGCAUGU
B22	0.00255 KA relative to UGCAUGU
B23	0.0126 KA relative to UGCAUGU
B24	0.00243 KA relative to UGCAUGU
B25	0.00607 KA relative to UGCAUGU
B26	0.00413 KA relative to UGCAUGU
B27	0.0121 KA relative to UGCAUGU
B28	0.000575 KA relative to UGCAUGU
B29	0.0158 KA relative to UGCAUGU
B30	0.000268 KA relative to UGCAUGU
B31	0.00563 KA relative to UGCAUGU
